From the supplement of paper PMC10600219 come the findings set out here.

Values joined by “and” are separate entries in the source; they are usually repeats but may differ in a detail not shown here. Equal entries are not always repeated. Structures can show the parent of a compound that is named as a salt. Whole data set: some 2,800 compounds, median “cell viability relative to vehicle” near 0.98, cut for the lowest 2% near 0.45. The list shows a part of the results.

The assay has as its system NCI-H2228 alectinib-DTP. Briefly: cell viability relative to vehicle (fraction of vehicle); NCI-H2228 is an ALK-positive lung cancer line and DTP means drug-tolerant persister; higher = less growth inhibition. The note with it: 100 nM; treatment time 6 days. The procedure, abridged:
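Values give cell viability as a fraction of vehicle-treated cells. Parental and drug-tolerant persister NCI-H2228 cells (persisters made with 1000 nM of a targeted drug for 13 days) were exposed in 384-well plates to the 3114-agent TargetMol anti-cancer compound library at 100 nM, with DMSO as vehicle. ATP was then read after 6 days by the CellTiter-Glo 3D Cell Viability Assay.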
`CCCCCCc1ccc(O)cc1O` [Hexylresorcinol] showed a cell viability of 0.996.

For `O=C(/C=C\n1cnc(-c2cc(C(F)(F)F)cc(C(F)(F)F)c2)n1)NNc1cnccn1` [Selinexor], the cell viability is 0.853.

As to `CN(C)Cc1ccc(-c2nc3cccc4c3n2CCNC4=O)cc1`, the cell viability came out at 0.995.

Molecule `Cc1cc(C)c(NC(=O)C2CC3CCC2C3)c(C)c1` (stereo not given) gave a cell viability of 0.981.

`Cc1cccc(Nc2nc(-c3ccncc3)cs2)c1` returned a cell viability of 0.818.

As to `CN(C)CCC(c1ccccc1)c1ccccn1` (stereo not given) [Pheniramine maleate], the cell viability turned out to be 1.09.

`CC(C)CCC[C@@H](C)[C@H]1CC[C@H]2[C@@H]3CC=C4C[C@@H](O)CC[C@]4(C)[C@H]3CC[C@]12C` [Cholesterol] yielded a cell viability of 1.12.

In turn, `Nc1ccn([C@@H]2O[C@H](CO)[C@@H](O)[C@H]2O)c(=O)n1` [Cytidine] gave a cell viability of 1.09.

For `COc1cc(/C=C/CO)cc(OC)c1O[C@@H]1O[C@H](CO)[C@@H](O)[C@H](O)[C@H]1O` [eleutheroside-b], the cell viability came to 1.1.

For the molecule `C[C@@H]1O[C@@H](O[C@@H]2[C@H](O)[C@@H](O)[C@H](O[C@H]3CC[C@@]4(C)C(CC[C@]5(C)C4C=C[C@]46OC[C@@]7(CCC(C)(C)CC74)[C@@H](O)C[C@]65C)C3(C)C)O[C@@H]2CO[C@@H]2O[C@H](CO)[C@@H](O)[C@H](O)[C@H]2O)[C@H](O)[C@H](O)[C@H]1O` (stereo not given in full) [Saikosaponin C], the cell viability was found to be 0.993.

In turn, `O=c1cc(CN2CCOCC2)occ1OCCCCCSc1ccnc2cc(C(F)(F)F)ccc12` returned a cell viability of 0.875.

Molecule `CCOc1ccc(Cc2cc([C@@H]3O[C@H](CO)[C@@H](O)[C@H](O)[C@H]3O)ccc2Cl)cc1` [Dapagliflozin] displayed a cell viability of 0.948.

As for `O=C(O)c1cc(=O)c2c(OCC(O)COc3cccc4oc(C(=O)O)cc(=O)c34)cccc2o1` [Sodium cromoglycate], the cell viability was 1.03.

Take `O=c1c(O)c(-c2ccccc2)oc2cc(O)cc(O)c12` [Galangin]: the cell viability was 1.03.

In turn, `O=C(O)c1ccnc2ccccc12` [4-Quinolinecarboxylic acid] yielded a cell viability of 0.956.

`Nc1nc(=O)c2c([nH]1)NCC(CNc1ccc(C(=O)N[C@@H](CCC(=O)O)C(=O)O)cc1)N2C=O` (stereo not given in full) [Calcium folinate] displayed a cell viability of 1.1.

In turn, `CCN1/C(=C/C(C)=O)Sc2ccc(OC)cc21` returned a cell viability of 0.958.

For `Cc1cc(C)cc(NC(=O)Cc2ccc(OC(C)(C)C(=O)O)cc2)c1` [Efaproxiral Sodium], the cell viability came to 0.938.

Molecule `Cc1ccc(O)c([C@H](CCN(C(C)C)C(C)C)c2ccccc2)c1` [Tolterodine tartrate] showed a cell viability of 1.15.

For the molecule `Oc1c(Cl)cc(Cl)cc1Sc1cc(Cl)cc(Cl)c1O` [Bithionol], the cell viability worked out at 0.871.

As for `C=CCc1ccccc1OCC(O)CNC(C)C` (stereo not given) [Alprenolol], the cell viability was found to be 0.994.

With `CC(=O)OC(C)C[N+](C)(C)C` (stereo not given) [Methacholine Chloride], the cell viability turned out to be 0.925.

The molecule `CCCCOc1ccc(CC(=O)NO)cc1` [Bufexamac] came in with a cell viability of 0.882.

On to `CCCC(C(=O)OCCN(CC)CC)(c1ccccc1)c1ccccc1` [Proadifen hydrochloride], for which the cell viability is 0.801.

On to `C[C@@H]1CC[C@@]2(OC1)O[C@H]1C[C@H]3[C@@H]4CC=C5C[C@@H](O[C@@H]6O[C@H](CO)[C@@H](O)[C@H](O[C@@H]7O[C@H](CO)[C@@H](O)[C@H](O)[C@H]7O)[C@H]6O[C@@H]6O[C@@H](C)[C@H](O)[C@@H](O)[C@H]6O)CC[C@]5(C)[C@H]4CC[C@]3(C)[C@H]1[C@@H]2C` [Gracillin], for which the cell viability worked out at 1.03.

As to `CO[C@H]1C(=O)[C@]2(C)[C@@H](OC)C[C@H]3OC[C@@]3(OC(C)=O)[C@H]2[C@H](OC(=O)c2ccccc2)[C@]2(O)C[C@H](OC(=O)[C@H](O)[C@@H](NC(=O)OC(C)(C)C)c3ccccc3)C(C)=C1C2(C)C` [Cabazitaxel], the cell viability amounted to 0.472.

`O=S(=O)(O)CCSSCCS(=O)(=O)O` [Dimesna] registered a cell viability of 0.881.

Molecule `CC(C)=CCC/C(C)=C/COc1ccc2ccc(=O)oc2c1` [Auraptene] registered a cell viability of 1.12.

In the case of `CC(C)(C)c1ccc(S(=O)(=O)NCc2ccc(C(=O)Nc3cccnc3)cc2)cc1`, the cell viability stood at 0.98.

As for `Cc1ccccc1C(=O)N1CCc2cc(-c3nc(NC(=O)Cc4ccc5c(c4)OCO5)sc3C)ccc21`, the cell viability is 1.15.

`NC(=O)NO` [Hydroxyurea] showed a cell viability of 0.96.

`Clc1ccccc1C(c1ccccc1)(c1ccccc1)n1ccnc1` [Clotrimazole] displayed a cell viability of 1.06.

Molecule `CO/N=C1\CN(c2nc3c(cc2F)c(=O)c(C(=O)O)cn3C2CC2)CC1CN` (stereo not given) [Gemifloxacin mesylate] had a cell viability of 0.977.

As for `C[C@H](CCC(=O)NCC(=O)O)[C@H]1CC[C@H]2[C@@H]3[C@H](O)C[C@@H]4C[C@H](O)CC[C@]4(C)[C@H]3C[C@H](O)[C@]12C` [Glycocholic acid], the cell viability was 1.09.

Turning to `Clc1ccc(COC(Cn2ccnc2)c2ccc(Cl)cc2Cl)cc1` (stereo not given) [Econazole], the cell viability was found to be 1.21.

In turn, `COc1cc2c(cc1OC)CN(CCc1ccc(NC(=O)c3cccc4c(=O)c5cccc(OC)c5[nH]c34)cc1)CC2` [Elacridar] registered a cell viability of 1.01.

Turning to `CCN(CCCc1ccccc1)CCCc1ccccc1` [Alverine citrate], the cell viability came out at 1.1.

In turn, `Cc1c(C)c2c(c(C)c1O)CC[C@@](C)(CCC[C@H](C)CCC[C@H](C)CCCC(C)C)O2` [Vitamin E] registered a cell viability of 1.05.

Regarding `Cc1cc(CS(=O)(=O)c2ccccc2)cc(OCc2ccc(CN3CCC[C@@H]3CO)cc2)c1`, the cell viability was found to be 0.965.

`CCc1cc(/C(C)=N/OCc2ccc(C3CCCCC3)c(C(F)(F)F)c2)ccc1CN1CC(C(=O)O)C1` [Siponimod] registered a cell viability of 0.931.

`CC[C@]1(O)C[C@@H]2CN(CCc3c([nH]c4ccccc34)[C@@](C(=O)OC)(c3cc4c(cc3OC)N(C)[C@H]3[C@@](O)(C(=O)OC)[C@H](OC(C)=O)[C@]5(CC)C=CCN6CC[C@]43[C@@H]65)C2)C1` [Vinblastine sulfate] registered a cell viability of 0.603.

On to `CC[C@H](CC[C@@H](C)[C@H]1CC[C@H]2[C@@H]3CC=C4C[C@@H](O[C@@H]5O[C@H](CO)[C@@H](O)[C@H](O)[C@H]5O)CC[C@]4(C)[C@H]3CC[C@]12C)C(C)C` [Sitogluside], for which the cell viability was determined as 0.962.

The molecule `CCn1c(-c2nonc2N)nc2cnc(Oc3cccc(NC(=O)c4ccc(OCCN5CCOCC5)cc4)c3)cc21` yielded a cell viability of 1.4.

In the case of `CCN(CC)C(=O)N1CCN(C)CC1` [Diethylcarbamazine citrate], the cell viability was determined as 1.03.

Molecule `Cn1cnc(N)c2ncnc1-2` [3-Methyladenine] returned a cell viability of 1.06.

With `c1ccc2c(-c3cnn4cc(-c5ccc(N6CCNCC6)cc5)cnc34)ccnc2c1`, the cell viability was 1.26 and 1.18.

`CC(C)(Oc1ccc(C2CC2(Cl)Cl)cc1)C(=O)O` (stereo not given) [Ciprofibrate] displayed a cell viability of 1.08.

In turn, `CC(C)C[C@H](NC(=O)c1cc2ccccc2s1)C(=O)N1CCN(C(=O)[C@H](CO)NS(=O)(=O)c2ccc(Cl)cc2Cl)CC1` yielded a cell viability of 0.955.

Molecule `COc1ccc(Br)cc1NC(=O)Nc1cccc2c1ccn2Cc1ccnc(N)c1` gave a cell viability of 1.06.

`C=CCN1CCCC1CNC(=O)c1cc2nn[nH]c2cc1OC` (stereo not given) [Alizapride hydrochloride] returned a cell viability of 1.01.

Consider `Cc1ccc(C)c(OCCn2cc(C(=O)O)c3ccccc32)c1`, for which the cell viability stood at 0.905.

Turning to `CC(C)c1onc(-c2c(Cl)cccc2Cl)c1COc1ccc(/C=C/c2cccc(C(=O)O)c2)c(Cl)c1`, the cell viability is 1.08.

Molecule `CO[C@@H](C)Cn1c(=O)n(C)c2cnc3ccc(-c4cncc(C(C)(C)O)c4)cc3c21` registered a cell viability of 0.513.

Molecule `Nc1nc(Nc2ccc(S(N)(=O)=O)cc2)nn1C(=O)c1c(F)cccc1F` yielded a cell viability of 1.03.

Molecule `CC1=C(C(=O)O)N2C(=O)[C@@H](NC(=O)[C@H](N)c3ccc(O)cc3)[C@H]2SC1` [Cefadroxil] returned a cell viability of 1.04.

As to `N#CC(=C(/N)Sc1ccccc1N)/C(C#N)=C(\N)Sc1ccccc1N`, the cell viability worked out at 1.01.

In the case of `Cc1[nH]c(/C=C2\C(=O)Nc3ccc(S(=O)(=O)Cc4c(Cl)cccc4Cl)cc32)c(C)c1C(=O)N1CCC[C@@H]1CN1CCCC1`, the cell viability is 1.

The molecule `Cc1c(CC(=O)O)c2cccnc2n1Cc1ccc(S(C)(=O)=O)cc1C(F)(F)F` [Fevipiprant] displayed a cell viability of 1.04.

Take `Nc1cc(F)ccc1NC(=O)c1ccc(CNC(=O)/C=C/c2cccnc2)cc1` [Chidamide]: the cell viability was 0.775.

`O=C(NCc1ccc(Oc2ccccc2)cc1)c1nc(-c2cc(Br)c(O)c(Br)c2)no1`: the cell viability was determined as 0.819.

With `Cc1c(Cn2c(C)nc3c(C(=O)O)cc(N4CCOCC4)cc32)cccc1C(F)(F)F`, the cell viability was determined as 0.959.

In turn, `CNC1(C)C2CCC(C2)C1(C)C` (stereo not given) [Mecamylamine hydrochloride] returned a cell viability of 0.868.

`NC(=O)c1cccnc1` [Nicotinamide] came in with a cell viability of 0.93.

`OCc1ccc(-c2nn(Cc3ccccc3)c3ccccc23)o1` [Lificiguat] came in with a cell viability of 1.1.

On to `CC(C)C[C@H](N)C(=O)O` [L-Leucine], for which the cell viability was determined as 1.02.

`Cn1c(=O)c2c(ncn2CC(O)CO)n(C)c1=O` (stereo not given) [Diprophylline] displayed a cell viability of 1.05.

On to `CCCc1nc(C(C)(C)O)c(C(=O)OCc2oc(=O)oc2C)n1Cc1ccc(-c2ccccc2-c2nnn[nH]2)cc1` [Olmesartan Medoxomil], for which the cell viability was 1.06.

Molecule `NCc1c[nH]c(=S)n1[C@H]1CCc2c(F)cc(F)cc2C1` [Nepicastat HCl] returned a cell viability of 1.04.

On to `O=C(O)CCc1nc2ccccc2[nH]1` [Procodazole], for which the cell viability amounted to 1.07.

`O=c1[nH]c(=O)n([C@H]2C[C@H](O)[C@@H](CO)O2)cc1/C=C/Br` [Brivudine]: the cell viability amounted to 1.04.

For `COc1ccc(-c2cc3c(C)nc(N)nc3n([C@H]3CC[C@H](OCCO)CC3)c2=O)cn1`, the cell viability is 0.398.

Take `COC(=O)c1c2c(c3ccccc3c1O)OC(C)(C)C=C2` [Mollugin]: the cell viability is 1.05.

As to `NCCNc1ccc(NCCN)c2c1C(=O)c1ccncc1C2=O` [Pixantrone dimaleate], the cell viability was 0.661.

`COc1ccc(/C=C/C(=O)C2(C(=O)/C=C/c3ccc(OC)c(OC)c3)CCCCC2)cc1OC` registered a cell viability of 1.02.

For the molecule `Cn1c(=O)c(F)c(Nc2ccc(I)cc2F)c2c(=O)n(C[C@@H](O)CO)cnc21`, the cell viability is 0.77.
